Experimental data as given in the BET-seq Pho4 binding data (Le et al. 2018).
The other results are listed elsewhere or left out. These are noisy estimates, calculated here from bound and input reads.

molecular target: T1, Pho4 (S. cerevisiae) (UniProt P07270); experiment: relative binding free energy (BET-seq); higher = weaker binding; conditions: reference: library average
T1 sequence: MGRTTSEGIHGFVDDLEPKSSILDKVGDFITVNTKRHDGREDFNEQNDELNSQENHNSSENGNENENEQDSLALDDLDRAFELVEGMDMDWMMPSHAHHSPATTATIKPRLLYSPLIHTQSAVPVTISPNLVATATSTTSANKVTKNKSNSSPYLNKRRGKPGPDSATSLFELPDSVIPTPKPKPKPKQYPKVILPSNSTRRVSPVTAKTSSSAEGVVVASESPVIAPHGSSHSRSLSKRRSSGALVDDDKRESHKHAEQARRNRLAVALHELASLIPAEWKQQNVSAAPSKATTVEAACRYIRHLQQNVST

Sequence	relative binding free energy [kcal/mol]
TGAAACACGTGTTATT	0.18
TTGTTCACGTGAGATT	0.45
AATATCACGTGATGAT	0.27
TTGTTCACGTGAGTGT	0.39
GCTAGCACGTGGTGAG	-0.08
TGTGACACGTGTGGTA	-0.04
TTTCACACGTGATATA	0.17
GTGTGCACGTGTTCTT	0.11
GATGACACGTGTTGTG	-0.06
GAGGCCACGTGGTTGG	0.05
CAGTGCACGTGGATTT	0.21
AGGAGCACGTGTGCGT	-0.27
TTGGTCACGTGTAGAG	0.11
CATTTCACGTGAGGAG	0.45
GGGGTCACGTGGGTAA	0.1
AGAAACACGTGTGGGA	0.01
TTACGCACGTGCGGGG	-0.08
TGAGTCACGTGAGTCG	0.34
ATTCGCACGTGGTTTG	-0.13
ATGTGCACGTGAGTAA	0.15
GTGTTCACGTGAATGG	0.37
TTTGGCACGTGAGAGC	0
TGTTTCACGTGTAGAT	0.25

Sequence	relative binding free energy [kcal/mol]
CGGGTCACGTGGAGTA	0.14
ATTCTCACGTGGTGAG	0.2
GGTCACACGTGACGTG	0.46
TATAGCACGTGGATAT	-0.02
TTAGTCACGTGATGCA	0.13
TTACTCACGTGAGTTT	0.22
GTGCTCACGTGTTGAA	0.23
CCTAGCACGTGTGGGT	0
AGTTTCACGTGGATGG	0.28
GGCTTCACGTGTAAGG	0.28
TAGTTCACGTGGGACG	0.07
TAGGACACGTGGCAGT	-0.12
TTGAACACGTGTAGAG	0.15
CGTTTCACGTGGAATA	0.46
ATGGACACGTGGTAGG	0.07
ACGCTCACGTGTTGTT	0.24
TTATGCACGTGTGCAT	-0.1
GTAATCACGTGGTGGG	0.14
GTGGGCACGTGTGCGA	-0.2
GGGCTCACGTGTATGG	0.21
GCGTGCACGTGGAGGT	-0.05
GGGGTCACGTGCCGTG	-0.02
CTGTGCACGTGGTCTG	-0.17

Sequence	relative binding free energy [kcal/mol]
CTGGTCACGTGTGACG	0.09
GCGGACACGTGGAAGT	0.26
ATTTGCACGTGGTCGT	-0.08
ATGATCACGTGAAGGG	0.23
TGTTACACGTGGTTTC	0.18
CTTGGCACGTGCGTGG	-0.27
TAGTACACGTGCTGAG	0.12
TAAGGCACGTGGATTT	0.03
AATGGCACGTGGCGTG	-0.26
CGGGACACGTGGCAGT	-0.01
AGGCGCACGTGGGTGC	-0.24
TCGGGCACGTGTTAAA	0.02
TTGGGCACGTGGGCGG	-0.17
TAGGTCACGTGGTGGA	0.1
CGCTGCACGTGGGGAG	-0.14
AAGGTCACGTGTCAAT	0.28
AGTGTCACGTGGTCGC	-0.25
GGACTCACGTGTGGGG	0.22
TAGTTCACGTGCTCTT	0.28
TGTTGCACGTGCAGAT	-0.05
TGTAGCACGTGCAGGC	-0.14
ATATACACGTGTATGG	-0.01
GAGGGCACGTGGTGAA	-0.11

Sequence	relative binding free energy [kcal/mol]
ATTAGCACGTGTGGGG	-0.11
TAATACACGTGAGAGG	0.36
ATTTGCACGTGGGATG	-0.2
TGGGGCACGTGGATCA	-0.26
TGACACACGTGGGTAG	-0.1
GTGTTCACGTGTCGTT	0.19
CAAGTCACGTGTTGGG	0.12
GGAATCACGTGCGGGA	0.24
TAGGTCACGTGGAGGG	0.12
CATTTCACGTGATGTG	0.11
CTTTTCACGTGGTGGA	0.24
GAGATCACGTGATGGA	0.36
TTATCCACGTGGTTAT	-0.01
TAAGGCACGTGTAAGT	0.08
TAATACACGTGAGTAT	0.15
TAGAGCACGTGGTTCA	-0.08
TGCAACACGTGTAGGG	0.04
GCTTGCACGTGTCGGG	0.14
TTTACCACGTGGTCTG	-0.12
TCGTGCACGTGAGGGT	0.12
TATATCACGTGATGAG	0.23
GGATGCACGTGGCGTA	-0.12
TGTGCCACGTGTGGCG	0.02

Sequence	relative binding free energy [kcal/mol]
TTTTACACGTGAGGCG	0.23
GGTCGCACGTGTAAGT	0.1
GAGGGCACGTGGGAAC	-0.13
TGATACACGTGTTTGT	0.04
AGGTTCACGTGAATTT	0.34
TGATTCACGTGGGGGA	0.23
TAAGTCACGTGTAGAT	0.31
ATAGACACGTGCGGTT	-0.04
AATTGCACGTGATGGA	0.12
TTTAACACGTGGTTAG	0
GTATTCACGTGATGGT	0.44
ATGGACACGTGCATGT	-0.03
CGTTACACGTGGTGGT	0.04
AAAGGCACGTGGGCGG	-0.21
TCTTGCACGTGTGACG	0.15
AGGAGCACGTGTCATG	-0.05
TTCAACACGTGTGGGC	0.09
TGCGACACGTGTGTGT	-0.03
TGGCCCACGTGGGGGT	-0.34
TCGGTCACGTGTCTTG	0.15
AAAGGCACGTGGCAGT	-0.16
GTATGCACGTGCAGGT	0.02
TGAAGCACGTGTGGAA	-0.02
